Measured values as given in paper PMC4336329 (PLoS ONE, 2015).
The whole screen tested about 310,000 compounds, of which about 2,200 (0.71%) showed an effect of 50% or more. The effect is printed as a negative number. Some of the results follow.

Biological target: human ether-à-go-go-related gene (hERG) potassium channel (human, UniProt Q12809)
Test: primary screen, population patch clamp on CHO cells stably expressing hERG

Chain of human ether-à-go-go-related gene (hERG) potassium channel (Q12809 whole entry, looked up): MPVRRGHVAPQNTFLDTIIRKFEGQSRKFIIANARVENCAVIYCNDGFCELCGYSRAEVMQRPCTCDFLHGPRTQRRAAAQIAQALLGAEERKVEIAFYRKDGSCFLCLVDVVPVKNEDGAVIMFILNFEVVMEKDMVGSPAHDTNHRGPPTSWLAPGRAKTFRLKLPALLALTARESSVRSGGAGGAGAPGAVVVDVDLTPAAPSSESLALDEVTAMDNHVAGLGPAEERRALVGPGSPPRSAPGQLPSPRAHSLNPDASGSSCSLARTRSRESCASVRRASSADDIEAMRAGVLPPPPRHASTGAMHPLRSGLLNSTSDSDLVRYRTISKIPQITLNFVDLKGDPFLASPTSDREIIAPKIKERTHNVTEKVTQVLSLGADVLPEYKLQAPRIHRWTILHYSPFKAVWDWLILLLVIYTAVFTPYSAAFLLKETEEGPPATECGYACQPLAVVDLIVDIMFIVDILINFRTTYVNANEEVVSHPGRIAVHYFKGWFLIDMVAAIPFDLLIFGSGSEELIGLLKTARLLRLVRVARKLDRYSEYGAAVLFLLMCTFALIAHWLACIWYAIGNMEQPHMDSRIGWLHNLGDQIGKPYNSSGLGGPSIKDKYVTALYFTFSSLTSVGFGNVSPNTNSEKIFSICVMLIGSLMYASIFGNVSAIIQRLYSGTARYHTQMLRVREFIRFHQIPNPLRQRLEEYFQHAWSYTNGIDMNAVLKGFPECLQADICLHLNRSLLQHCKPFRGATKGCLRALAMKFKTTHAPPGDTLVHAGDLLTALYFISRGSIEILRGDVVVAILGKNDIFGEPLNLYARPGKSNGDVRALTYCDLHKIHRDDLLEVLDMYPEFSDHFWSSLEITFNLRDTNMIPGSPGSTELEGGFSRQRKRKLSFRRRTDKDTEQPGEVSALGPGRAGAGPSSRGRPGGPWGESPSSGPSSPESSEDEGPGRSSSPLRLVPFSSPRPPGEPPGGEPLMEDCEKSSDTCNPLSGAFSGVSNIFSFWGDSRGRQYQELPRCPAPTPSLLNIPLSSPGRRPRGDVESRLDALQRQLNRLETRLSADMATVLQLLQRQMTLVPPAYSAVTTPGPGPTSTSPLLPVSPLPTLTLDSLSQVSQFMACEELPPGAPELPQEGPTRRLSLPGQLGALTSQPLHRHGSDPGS

| SMILES | hERG current change (%, negative = inhibition) at 1uM [%] |
| --- | --- |
| Cc1ccc(S(=O)(=O)Nc2cc(C(=O)Nc3cc(C)cc(C)c3)ccc2Cl)cc1 | 8.71 |
| C=C(C)CNC(=S)N/N=C/C1=CCC2CC1C2(C)C (stereo not drawn) | 7.5 |
| COc1ccc(CNC(C)C23CC4CC(CC(C4)C2)C3)c(OC)c1OC.Cl (stereo not drawn) | 1.98 |
| CCNS(=O)(=O)c1ccc(CCC(=O)N2CCN(c3cccc(Cl)c3)CC2)cc1 | 10.5 |
| O=C(NCc1ccco1)c1cc2cc3ccc(Cl)cc3nc2o1 | 8.75 |
| Cc1cccc(-n2c(C)cc(/C=C3\C(=N)N4N=C(CC(C)C)SC4=NC3=O)c2C)c1 | 9.32 |
| CCn1cc(C(=O)NCc2ccccc2)c(=O)c2cc(F)c(N3CCN(C(=O)c4ccco4)CC3)cc21 | 15.2 |
| O=C(Cc1cccs1)N(Cc1ccco1)C1(C(=O)NC2CCCC2)CCCCC1 | 4.05 |
| c1cncc(-c2nc(NCC3COc4ccccc4O3)c3ccccc3n2)c1 (stereo not drawn) | 5.21 |
| Cn1c(CC(=O)Nc2ccccc2)nnc1SCC(=O)NC1=NCCS1 | 13.4 |
| Cc1ccc(C(=O)N(Nc2nc3ccccc3s2)C(=O)c2ccc(C)cc2)cc1 | 13.6 |
| O=C(Cc1ccsc1)N1CCN(S(=O)(=O)c2cccc(F)c2)CC1 | 8.76 |
| O=C(NCCc1ccccc1)C1CCN(C2CCN(Cc3ccc(CO)o3)CC2)CC1 | 5.67 |
| Cc1ccc(C(=O)c2cncc(Br)c2)cc1 | 7.48 |
| COc1cc(OC)cc(-c2nnc(SCC(=O)N3CCCc4ccccc43)o2)c1 | 5.2 |
| C1=NCCc2c1[nH]c1ccccc21.[O-][Cl+3]([O-])([O-])O | 12.8 |
| CCn1nc(C)c(CNC(=O)CC2C(=O)NCCN2Cc2ccc(C)o2)c1C (stereo not drawn) | 14.4 |
| Cc1ccc(-c2cc(-c3ccccc3)c(C#N)c(N)n2)o1 | 11.2 |
| COc1ccc([C@H]2/C=C\CN(S(=O)(=O)/C=C/c3ccccc3)[C@@H](C)C(=O)N2Cc2ccc(F)cc2)cc1 | -47.4 |
| O=C(Nc1ccccn1)c1ccc(S(=O)(=O)c2ccc(Cl)cc2)cc1 | 14.3 |
| Cc1ccc(-n2c(Cc3cccn3C)nnc2SCC(=O)Nc2nnc(C)s2)cc1 | -0.247 |
| COC(=O)C1(C(=O)OC)NOC2C(=O)N(c3ccc(Cl)cc3Cl)C(=O)C21 (stereo not drawn) | -1.11 |

| SMILES | hERG current change (%, negative = inhibition) at 1uM [%] |
| --- | --- |
| O=C(Nc1ccccc1)NC1(C(=O)N2CCC(O)CC2)CCCCC1 | -20.6 |
| Cc1ccc(OCC(O)CN2CCOCC2)c(C)c1.Cl (stereo not drawn) | 12.6 |
| NC1=NC(=O)/C(=C/c2ccccc2OS(=O)(=O)c2ccc3ccccc3c2)S1 | 11.9 |
| O=C(/C=C/c1ccc2c(c1)OCO2)N1CCN(c2n[nH]c(=O)[nH]c2=O)CC1 | 3.13 |
| CC(=O)C(C)Sc1nnc(-c2ccccc2F)n1C1CC1 (stereo not drawn) | 18.9 |
| CCCc1cc(=O)[nH]c(SCC(=O)c2c[nH]c3ccccc23)n1 | 20.1 |
| Cc1ccc(C(=O)CSc2nnc(-c3ccco3)n2Cc2ccccc2)cc1 | -0.102 |
| Cc1ccc(NS(=O)(=O)c2cccc(C(=O)NCCCn3ccnc3)c2)cc1 | 15.2 |
| COC(=O)Cn1cc(C=C2C(=O)NC(=O)NC2=O)c2ccccc21 | 12.5 |
| CC/C(=N/NS(=O)(=O)c1ccc(Cl)cc1)c1ccc(O)cc1 | 4.09 |
| Cn1c(N)c(C(=O)COC(=O)C2CCCCC2)c(=O)n(C)c1=O | 4.03 |
| CCCN1Cc2cccc(C(=O)Nc3ccc(CC)cc3)c2C1=O | 8.47 |
| CC(C)C(OC(=O)c1ccco1)C(=O)NCc1ccccc1 (stereo not drawn) | 9.05 |
| COc1cc(N(C)C)c([N+](=O)[O-])cc1C(=O)N1CCN(Cc2ccccc2)CC1 | 14.9 |
| CC1CN(C(=O)CCn2c(=O)oc3ccccc32)CC(C)O1 (stereo not drawn) | 5.2 |
| CC(=O)N/C(=C/c1cccnc1)C(=O)Nc1ccc(Cl)cc1 | -3.89 |
| C=CCOc1ccc(C2C(C#N)=C(N)N(N(C)C)C3=C2C(=O)CCC3)cc1 (stereo not drawn) | 0.182 |
| CS(=O)(=O)Nc1cccc(-c2cnc3ccccc3n2)c1 | -43.8 |
| Cc1ccc(S(=O)(=O)Nc2ccccc2CNc2ncc(Br)cc2Br)cc1 | 10.2 |
| COC(CNC(=O)C1CCN(S(=O)(=O)c2cccc3nsnc23)CC1)OC | 17.2 |
| COc1ccc2c(c1)c(C(=O)CN1CCC3(CC1)OCCO3)c(C)n2C | 7.41 |
| CCOC(=O)C1CCCN(C(=O)c2ccc(S(=O)(=O)NCc3ccco3)cc2)C1 (stereo not drawn) | 5.98 |

| SMILES | hERG current change (%, negative = inhibition) at 1uM [%] |
| --- | --- |
| Nc1nc(NCCOCCO)nc(Nc2cccc(F)c2)c1[N+](=O)[O-] | 6.22 |
| CC(=O)N(c1ccc2oc(=O)sc2c1)S(=O)(=O)c1cccs1 | 1.51 |
| CCCOc1ccc(C(CC(=O)O)NC(=O)C23CC4CC(CC(C4)C2)C3)cc1 (stereo not drawn) | 14.9 |
| CCCC1(CCC)C(=O)NC(=NCCc2ccc(OC)c(OC)c2)NC1=O | 2.39 |
| CCCCN(C)C1CCN(C(=S)Nc2ccc(OC)cc2)CC1 | -7.98 |
| Cc1c(C(=O)N2CCN(C3CCS(=O)(=O)C3)CC2)oc2c(F)cccc12 (stereo not drawn) | 10.7 |
| CCOC(=O)C1CCN(C(=O)c2cccc(N3C(=O)NC4CC3(C)Oc3ccc(C)cc34)c2)CC1 (stereo not drawn) | 16.5 |
| Cc1ccc(C2=NC(C)(C)NC2=O)cc1 | -0.529 |
| O=C(Nn1cnc2ccccc2c1=O)c1ccc(Cl)c([N+](=O)[O-])c1 | 12.6 |
| O=C(NC1CCCCC1)c1ccc(Cl)c(NC(=O)c2ccccc2F)c1 | 9.11 |
| CC(C)NC(=S)Nc1ccc2cn[nH]c2c1 | 7.62 |
| O=C(c1ccccc1Oc1ccc(C(F)(F)F)cc1[N+](=O)[O-])N1CCOCC1 | 7 |
| Cc1ccc(NS(=O)(=O)c2ccc(C(=O)N3CCN(c4ncccn4)CC3)cc2)cc1 | 1.36 |
| Cc1cccc2cc(C#N)c(SCC#N)nc12 | 21 |
| O=C(Nc1cccn2ncnc12)c1ccc(Cl)cc1 | -4.04 |
| Cc1nc2ccccc2c(=O)n1/N=C/c1ccc(O)cc1O | 18 |
| CCNC(=O)n1cc(-n2cncn2)c(-c2ccccc2)n1 | 9.41 |
| CNC(=S)N(CCCN(C)C)Cc1cc2cc3c(cc2[nH]c1=O)OCCO3 | 13.9 |
| COc1ccc(CCNC(=O)CN2C(=O)CCSc3ccccc32)c(OC)c1 | 5.89 |
| Cc1cccc(CCNC(=O)CCc2nc(-c3ccccc3F)no2)c1 | 6.73 |
| Cc1ccc2nc(NC(=O)CN3CCOCC3)sc2c1 | -0.26 |
| O=C(NCCCc1ccccc1)C(=O)c1c[nH]c2ccccc12 | 12.6 |

| SMILES | hERG current change (%, negative = inhibition) at 1uM [%] |
| --- | --- |
| O=C(NCCc1ccccc1)C1CCC(CNc2nc(=S)[nH]c3ccccc23)CC1 (stereo not drawn) | 6.06 |
| O=C(Cn1c(-c2ccccn2)nc2ccccc21)NCCN1CCOCC1 | 2.76 |
| COCCn1nnnc1C(C(C)C)N(Cc1cccnc1)Cc1ccccc1Cl (stereo not drawn) | -7.04 |
| COC(=O)c1ccc2c(=O)[nH]c(COC(=O)c3cccc(S(=O)(=O)N4CCOCC4)c3)nc2c1 | 17 |
| COc1ccc(-c2noc(CSc3nc4ccccc4c(=O)n3-c3ccccc3)n2)cc1 | 1.58 |
| Nc1nc(NCc2ccco2)nc(NCCO)c1[N+](=O)[O-] | 10.8 |
| O=C1Nc2cc(C(=O)N3CCN(c4ccccn4)CC3)ccc2S/C1=C\c1ccccc1 | 6.63 |
| CC(=O)OCc1c(C(F)(F)F)nn(C)c1SCc1ccc(Cl)cc1 | 15.1 |
| CC(C)Oc1ccc(/C=N/NC(N)=S)cc1 | 4.39 |
| CN(C)CCNC(=O)/C=N/O | 15.9 |
| O=C(Nc1ccc(Cl)cc1C(=O)NCC1CCCO1)c1ccco1 (stereo not drawn) | -0.31 |
| CC(C)CN(C(=O)COC(=O)CSc1ccccc1F)c1c(N)n(Cc2ccccc2)c(=O)[nH]c1=O | 11.7 |
| COc1ccc(NS(=O)(=O)c2ccc(Cl)c(C(=O)O)c2)cc1S(=O)(=O)N1CCCCC1 | 7.71 |
| COc1ccc2c(-c3ccccc3)cc(SCC(=O)NC3CCS(=O)(=O)C3)nc2c1 (stereo not drawn) | 11 |
| O=S(=O)(c1ccc(F)cc1)N1CCN(c2ccccn2)CC1 | 5.17 |
| Cc1nnc(NC(=O)c2ccc(S(=O)(=O)N(C)Cc3ccccc3)cc2)o1 | 2.16 |
| COc1ccc(-c2c(C#Cc3ccsc3)c3cc(-c4ccc5c(c4)OCO5)ccc3n2C)cc1 | 20 |
| CCn1c(SCC(=O)Nc2ccc(N(C)C)cc2)nnc1-c1ccco1 | 10.4 |
| O=c1cc(-c2ccccc2)nc(N2CCN(Cc3ccc4c(c3)OCO4)CC2)[nH]1 | -0.427 |
| COc1ccc(C(=O)NC(C)c2csc(C)n2)cc1OC1CCN(C(C)=O)CC1 (stereo not drawn) | 15.1 |
| O=C(CCC1CCCN(C(=O)c2ccc3[nH]ccc3c2)C1)N1CCN(c2ccccn2)CC1 (stereo not drawn) | 18.5 |
